Experimental findings from the supplement of paper PMC3334620 are described below.

The full ranking holds about 33,000 sequences; the median of “E-score (-0.5 to 0.5)” is about -0.016, and the highest 2% start at about 0.32. This is one part of the list.

The test deals with T1, Stp1 (UniProt B3LFK1).
T1 sequence: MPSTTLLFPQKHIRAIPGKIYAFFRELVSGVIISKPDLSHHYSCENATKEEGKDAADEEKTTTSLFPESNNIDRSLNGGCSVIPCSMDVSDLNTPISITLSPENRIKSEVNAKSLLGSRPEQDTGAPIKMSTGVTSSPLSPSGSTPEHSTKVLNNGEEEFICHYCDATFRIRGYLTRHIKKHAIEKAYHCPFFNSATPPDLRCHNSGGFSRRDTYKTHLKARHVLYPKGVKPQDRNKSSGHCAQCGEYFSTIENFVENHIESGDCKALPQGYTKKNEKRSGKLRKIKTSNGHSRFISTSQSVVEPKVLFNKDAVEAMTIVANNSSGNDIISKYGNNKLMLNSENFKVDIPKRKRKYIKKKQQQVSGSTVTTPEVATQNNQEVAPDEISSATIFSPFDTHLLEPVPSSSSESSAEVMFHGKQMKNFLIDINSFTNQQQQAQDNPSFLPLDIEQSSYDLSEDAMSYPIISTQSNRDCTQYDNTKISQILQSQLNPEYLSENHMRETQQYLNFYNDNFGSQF
Put plainly: PBM E-score (8-mer binding enrichment) (E-score (-0.5 to 0.5)); higher = stronger / more preferred TF binding; most listed sequences are background and not binding sites. The conditions noted are these: protein concentration: 200 nM; construct: GST-full length. The method, boiled down:
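E-scores (a modified Wilcoxon-Mann-Whitney statistic) were assigned by the Universal PBM Analysis Suite to every ungapped eight-base word pooled with its reverse complement. The input came from universal all-10-mer Agilent arrays made double-stranded by primer extension and probed with GST-tagged yeast transcription factors at about 100-200 nM. Fluorescent anti-GST detected bound protein, and masliner normalised the scans.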
Regarding CGACTTTA, the “PBM E-score” value was -0.124.
To TGAATGAA belongs 0.0194; to AGATACCT, -0.132; to CTAGAAAG, 0.117.
To GCGGTGTA belongs -0.137; to AGATTACT, 0.0619; to ATTACATA, 0.072.
To TCATTACA belongs 0.147; to CTAAACTC, 0.0286.
On to CAGTGCGG, for which the “PBM E-score” value came to 0.213.
To CTTTCTAC belongs 0.0838.
To GAACAACA belongs 0.0563; to AGAAGACG, 0.0888; to CGGGCAGA, -0.024.
As for CACTCAAA, the figure is 0.0964.
Take AGTCTATA: the “PBM E-score” value was -0.0565.
To AATTAAAG belongs -0.108.
As to CTCAGCAA, the “PBM E-score” value was 0.148.
To AACACATG belongs 0.0952; to CAGGGCTA, -0.177; to AATCAAAG, 0.00777.
On to ATGATGAC, for which the “PBM E-score” value was -0.135.
Regarding ACCGTGGC, the “PBM E-score” value stood at 0.0324.
To AAGCGAAA belongs 0.0713; to AACGAAGT, -0.191.
To GACGGCGA belongs 0.4.
As for ACATTCCG, the figure is -0.129.
On to CCTTCCTA, for which the “PBM E-score” value was -0.168.
In the case of ACCATCTG, the “PBM E-score” value is -0.0319.
To CGCGCGAA belongs 0.129.
To AGAACGCG belongs 0.0583; to CCAGGAAA, -0.0536; to GCGTTTAA, 0.024.
As for CCGCCTTC, the figure is -0.175; as for AAGTGCGA, -0.111; as for CCCGAAGG, -0.0669.
For the sequence CGCTTCTA, the “PBM E-score” value worked out at 0.0934.
As for GCACACTA, the figure is -0.0408; as for TGCTAGCA, -0.0699.
To AGTTAAAG belongs 0.0606.
To CCACTGTC belongs -0.245; to ACTGCGAA, 0.02; to AGGGTAGA, -0.106.
For the sequence GGTACGGA, the “PBM E-score” value was 0.0641.
To CATGTCGC belongs 0.15; to ACGTCCCA, -0.314; to AGCTAGGC, -0.212.
As for CCAGTAAG, the figure is -0.066.
Consider GCTCCTAC, for which the “PBM E-score” value is -0.151.
To GCGCAGCA belongs -0.0794; to CTAAGCGA, -0.204.
Consider ATGACTAC, for which the “PBM E-score” value is -0.269.
As for GCAGCGAC, the figure is -0.0968; as for GGTTGCCA, -0.0475; as for GGACGGAA, -0.0852.
To AGCCCCCG belongs -0.356.
As for CGCCAACG, the figure is 0.0633; as for ACAAGATA, 0.057; as for ACTCTGAT, 0.205.
In the case of AGCCGCCT, the “PBM E-score” value is 0.242.
To GGCACAGA belongs 0.223; to CGCGGACG, 0.195.
As for CCCTTCTA, the “PBM E-score” value is -0.11.
To ACTGGCGC belongs 0.239; to CTGGTAAA, -0.074.
As for ATTGAACG, the figure is 0.0706; as for ATCGTTGC, -0.0972; as for CAGCCTAG, -0.116.
For AAGCAAAT, the “PBM E-score” value was 0.00716.
As for ATCACGAG, the figure is -0.0594; as for AGGACCAG, -0.309.
As for AGCGTAAG, the figure is 0.057; as for GCTATCCC, -0.189; as for ACGCTTTG, 0.13.
To CTCGTATA belongs -0.0941; to TGTATGAA, 0.053.
As for AACTTCAT, the “PBM E-score” value stood at 0.092.
For GGGATTCA, the “PBM E-score” value is -0.0172.
As for CCTGTTCG, the “PBM E-score” value is -0.146.
As for CCGAAAGG, the figure is 0.0838.
To CACGACGG belongs 0.0249; to CGATAGCC, -0.0294; to AGGTGAAT, 0.0945.
As for ACATCCAG, the figure is -0.0916; as for ACTGCCTA, 0.0366.
On to AAAAGTAA, for which the “PBM E-score” value came out at 0.173.
As for CCACCTCG, the figure is -0.244; as for AAGGCGCA, 0.316; as for AACCGGCC, -0.0677.
To GTGACTGA belongs -0.171; to GCGAGAAA, -0.0771.
As for GTAAACGA, the figure is 0.148; as for CTGGGGCA, -0.165.
For the sequence TAACGTCA, the “PBM E-score” value worked out at 0.092.
